Measured values as given in PubChem BioAssay AID1159614 (National Center for Advancing Translational Sciences (NCATS), 2016).
In all, about 45,000 compounds went through this assay and about 65 (0.1%) were called active. The call rests on the fitted dose curve; in most records, active means well fitted activation curve with a large enough effect; inconclusive means small, poorly fitted or top-dose-only effect; inactive means no such curve, though single readings can be large or run the other way. The list shows a part of the results.

target: Galactocerebrosidase (Homo sapiens) (UniProt P54803); assay: A Novel Cell-Based Assay to Identify Small Molecules for B -Galactocerebrosidase; settings: 145M-Twi-hGALC-G270D cells, HMU-beta-Gal fluorescence, 48 h; series mostly up to 57.5 µM; activation: at the top concentration; further: 0% is about no effect; nearly all actives have a fitted effect of over 65% in size
How it was run: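 qHTS, 1536-well; 145M-Twi-hGALC-G270D cells (WT line also made) in DMEM/F12 + 10% FBS; compound incubation on live cells; HMU-β-gal 0.1 mM final, pH 5.2, NaTC; carbonate stop; fluorescence increase = enhanced residual activity.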

Sequence of UniProt P54803 (P54803 whole entry, looked up): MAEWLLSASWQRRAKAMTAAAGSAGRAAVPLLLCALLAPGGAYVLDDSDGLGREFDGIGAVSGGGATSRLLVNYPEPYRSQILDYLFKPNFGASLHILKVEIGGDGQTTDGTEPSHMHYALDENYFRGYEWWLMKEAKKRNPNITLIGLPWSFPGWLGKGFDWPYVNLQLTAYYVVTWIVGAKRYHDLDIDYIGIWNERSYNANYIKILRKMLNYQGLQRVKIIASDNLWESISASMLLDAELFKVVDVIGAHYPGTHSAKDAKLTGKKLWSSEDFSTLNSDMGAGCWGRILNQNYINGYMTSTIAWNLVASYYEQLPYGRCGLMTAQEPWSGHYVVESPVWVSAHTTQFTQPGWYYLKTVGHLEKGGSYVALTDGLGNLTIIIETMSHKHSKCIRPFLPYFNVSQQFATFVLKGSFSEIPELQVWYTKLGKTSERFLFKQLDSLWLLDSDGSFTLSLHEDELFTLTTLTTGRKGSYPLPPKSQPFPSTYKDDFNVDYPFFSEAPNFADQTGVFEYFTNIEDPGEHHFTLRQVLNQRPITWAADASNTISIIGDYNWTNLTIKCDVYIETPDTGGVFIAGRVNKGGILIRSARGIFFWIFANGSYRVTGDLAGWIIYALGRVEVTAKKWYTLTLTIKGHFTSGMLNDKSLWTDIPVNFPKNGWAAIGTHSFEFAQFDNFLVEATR

activation, inactive:
COc1ccc(-n2nc3ccc(NC(=O)c4c(OC)cccc4OC)cc3n2)cc1 -8.35%
NC(=O)C1CCN(C(=O)c2ccc3c(c2)N(Cc2cccc(Cl)c2)C(=O)c2ccccc2S3=O)CC1 (stereo not given) -12.8%
Cc1csc2nc(COC(=O)CNC(=O)c3ccc(F)cc3)cc(=O)n12 -4.49%
CCOC(=O)c1c(C)[nH]c(C)c1S(=O)(=O)NCC(=O)Nc1ccc(C)cc1C -1.52%
COc1ccc(CSc2nc3ccncc3n2CC(=O)Nc2cc(C)cc(C)c2)cc1 1.18%
Cc1cccc(N2CCN(C(c3ccccc3)c3nnc(-c4ccccc4F)o3)CC2)c1C (stereo not given) -12.9%
Cc1cc(C)cc(NC(=O)C2CCCN(S(=O)(=O)c3cccc4nsnc34)C2)c1 (stereo not given) -12.8%
Fc1ccc(Nc2nc(SCc3ccccc3Cl)nc3ccccc23)cc1 -30.6%
CCOc1ccc(C(=O)c2cn(CC(=O)Nc3cccc(OC)c3)c3cc4c(cc3c2=O)OCCO4)cc1 -4.89%
Cc1nn2c(-c3ccco3)ccnc2c1-c1ccc(Br)cc1 -11.3%
CC(=O)OC[C@H]1O[C@@](COC(C)=O)(O[C@H]2O[C@H](COC(C)=O)[C@@H](OC(C)=O)[C@H](OC(C)=O)[C@H]2OC(C)=O)[C@@H](OC(C)=O)[C@@H]1OC(C)=O -15.9%
Cc1ccc(-c2cc(N)n(-c3ccc(C)cc3)n2)cc1 -12.4%
Cc1c(C(=O)N2CCCCC2)c(S(=O)(=O)NCc2ccc(N(C)C)cc2)c(C)n1C -27.9%
Cc1[nH]n2c(=O)cc(-c3ccc(Cl)cc3)nc2c1-c1ccccc1 -8.56%
Cc1ccccc1CNC(=O)Cc1ccc(NC(=O)N2CCCCc3ccccc32)cc1 -9.76%
COc1ccc(N2CCN(C(CNC(=O)C(=O)NCc3cccnc3)c3cccnc3)CC2)cc1 (stereo not given) -6.14%
Cn1c(=O)c2c(nc(N3CCOCC3)n2Cc2cccc(Br)c2)n(C)c1=O -11.7%
CCOC(=O)c1c(C)oc2nc(C)nc(N3CCN(c4ccccc4F)CC3)c12 -12.5%
Cc1ccc(-c2[nH]c3c(c2-c2c(-n4cccc4)n(C)c(=O)[nH]c2=O)c(=O)[nH]c(=O)n3C)cc1 -9.27%
Cc1ccc(NC(=O)CSc2nc3c([nH]c4ccccc43)c(=O)n2-c2ccccc2)cc1Cl 2.13%
CCOc1ccc(NC(=O)C2CCN(c3nnc(C)c4c(C)n(-c5ccccc5)nc34)CC2)cc1 -6.79%
Cc1cccc(N2CCN(C(=O)C3CCN(C(=O)c4cc5sccc5n4C)CC3)CC2)c1C -13.9%
COc1ccccc1CNC(=O)C(C)n1ccc2cc(S(=O)(=O)N3CCCC3)ccc21 (stereo not given) -14.9%
COc1ccc(CNC(=O)c2ccc3nc(CCc4ccccc4)oc3c2)cc1 -11.1%
COc1ccc(NC(=O)CCS(=O)(=O)c2nc(-c3ccc4c(c3)OCO4)cc(C(F)(F)F)n2)cc1 -7.1%
Cc1c(C(=O)N2CCCC2)oc2c1-c1nn(CC(=O)NCc3ccccc3Br)cc1CC2 -6.14%
Cc1ccc(/C=C/c2onc(C)c2S(=O)(=O)N2CCC(C(=O)N3CCOc4ccc(C)cc43)CC2)cc1 3.28%
CSc1ccc(C2CC(=O)Oc3c2c(=O)n(C)c2ccccc32)cc1 (stereo not given) -7.79%
Cc1ccc2[nH]cc(S(=O)(=O)c3ccc(C)c(C)c3)c(=O)c2c1 -3.77%
CCN(CC)CCNc1ccc(CO)c2sc3ccccc3c(=O)c12 -12.5%
CC1Cn2c(C(=O)NCCc3ccc(Cl)cc3)cc3cccc(c32)S1 (stereo not given) -20.7%
Cc1ccc(F)cc1NC(=O)CCc1c(C)nn(-c2ccc(N3CCOCC3)nn2)c1C -8.77%
Cc1cc(=O)n(C(C)C(=O)N2CCCc3ccccc32)c2c1c(C)nn2-c1ccccc1 (stereo not given) -36.4%
CCOc1ccc2nc3cc(N)ccc3c(N)c2c1 0.578%
COc1ccc(-c2cc(C(=O)Oc3ccc(C)cc3)c3cc(C)ccc3n2)cc1 -6.17%
O=C(CN1C(=O)COc2ccc(S(=O)(=O)N3CCCCCC3)cc21)Nc1cccc(Cl)c1 -5.86%
N[C@@H](Cc1ccc(O)cc1)C(=O)O -7.4% [at 11.5 µM]
Cc1ccc(-c2nnc(Nc3ccc(OC(F)(F)Cl)cc3)c3ccccc23)cc1S(=O)(=O)NC(C)(C)CO -13.5%
CC(=O)N1CCc2c(sc3nc(SCC(C)C)n(-c4ccc(C)c(Cl)c4)c(=O)c23)C1 -40.2%
Nc1ccc(NC(=O)c2cccc(C(=O)Nc3ccc(N)cc3Cl)c2)c(Cl)c1 8.12%
O=C(COc1ccccc1)N(Cc1cccnc1)c1nc2c(F)cccc2s1 -8.38%
CCCCn1c(=N)c(S(=O)(=O)c2ccc(C)cc2)cc2c(=O)n3cc(C)ccc3nc21 -8.27%
O=C(COc1ccc(Cl)cc1)N1CCN(Cc2ccc3c(c2)OCO3)CC1 -6.03%
CCc1nn2c(=O)cc(COC(=O)c3ccc(NC(=O)CCc4ccccc4)cc3)nc2s1 -13.7%
O=C(Nc1ccc(-c2nc3cc(NC(=O)c4ccc(F)cc4)ccc3o2)cc1)c1ccc(F)cc1 -16%
COc1cc(-c2nc(SCC(=O)Nc3ccc(C)cc3)c(-c3ccc(F)cc3)[nH]2)cc(OC)c1OC -8.88%
COc1cc(/C=C(\C#N)c2nc3ccccc3[nH]2)ccc1OCc1ccc(F)cc1 -21.5%
CCCN(CCC)CCCNC(=O)c1cnn(-c2ccc(F)cc2)c1-n1cccc1 -12.9%
CC(NC(=O)C1CCN(S(=O)(=O)c2ccccc2)CC1)c1ccccc1 (stereo not given) -11.9%
Cc1nn(C(C)C(=O)Nc2ccc(C(C)C)cc2)c(=O)c2c1sc1ccccc12 (stereo not given) -10.5%
CCc1nc(SC)ncc1C(=O)N1CCN(c2cc(Cl)ccc2C)CC1 0.881%
Cc1ccccc1CNC(=O)C1=Cc2ccccc2OC1 -6.52%
COc1ccccc1N1CCN(C(=O)c2cnn(-c3cccc(Cl)c3)c2C2CCN(C(=O)OC(C)(C)C)CC2)CC1 -12.2%
C#CC(C)(CC)NC(=O)Cn1nnc(-c2ccc(OCc3ccccc3C)cc2)n1 (stereo not given) -1.93%
Cc1cccc(-c2nn3c(=O)cc(CN4CCN(C(=O)c5ccccc5Br)CC4)nc3s2)c1 0.27%
COc1ccccc1CNc1nc(-c2ccco2)nn1C(=O)c1cc(OC)c(OC)c(OC)c1 -16.3%
CN(Cc1cnc2nc(N)nc(N)c2n1)c1ccc(C(=O)N[C@@H](CCC(=O)O)C(=O)O)cc1 -12.3%
CCc1ccccc1NC(=O)c1cc(S(=O)(=O)N2CCc3ccccc32)ccc1F -9.25%
CCCn1c2ccccc2c2cnn(CC(=O)NCC3CCN(Cc4ccc(F)cc4)CC3)c(=O)c21 -9.48%
Cc1ccc2c(c1)c1c(c(=O)n(-c3cccc(Cl)c3)c(=O)n1CC(=O)NCCC1=CCCCC1)n2C 2.19%
COc1ccccc1CNC(=O)CCC1N=C2c3ccccc3N=C(SCC(=O)Nc3ccc(F)cc3)N2C1=O (stereo not given) 2.66%
CCn1c(SCc2ccccc2C)nc(=O)c2c(C(=O)OC)cc(C3CC3)nc21 -49.8%
COc1ccc(CNc2nc(-c3ccccc3)nn2S(=O)(=O)c2ccccc2)cc1 -6.19%
CN(CC(=O)NCc1ccc(Cl)cc1)S(=O)(=O)c1ccc2[nH]c3c(c2c1)CCCC3 -15.9%
COc1ccc(NC(=O)CCS(=O)(=O)c2nc(-c3cccs3)cc(C(F)(F)F)n2)cc1 -10.1%
COc1cccc(C2c3c(oc4cc(C)cc(C)c4c3=O)C(=O)N2CCc2ccc(OC)c(OC)c2)c1 (stereo not given) -15.8%
CCc1ccc(NS(=O)(=O)c2ccc3oc(=O)c4ncn(CC)c4c3c2)cc1 -6.56%
CCOC(=O)C1CCC(CN(Cc2ccc(OC)cc2)S(=O)(=O)c2ccc(F)c(C(=O)Nc3ccc(C)c(C)c3)c2)CC1 (stereo not given) -0.582%
O=c1cc(CSc2ncn[nH]2)[nH]c2ccc(F)cc12 -13.4%
COc1ccc(-n2c(Cc3ccccc3)nnc2SCc2nc(-c3cccs3)no2)cc1 -3.59%
O=C(Nc1nnc(-c2cc(Cl)ccc2Cl)o1)c1ccc2c(c1)OCCO2 -8.15%
CCn1c(CN2CCOCC2)nc2cc(NC(=O)c3ccccc3[N+](=O)[O-])ccc21 -10.4%
CCN(C(=O)Cn1c(=O)n(CCCS(=O)(=O)C2CCCCC2)c(=O)c2ccccc21)c1cccc(C)c1 -8.1%
Cc1ccc(NC(=O)N2CCc3cc(S(=O)(=O)N4CCC(C)CC4)ccc32)cc1 -3.95%
COc1cccc(-n2cc(C(=O)Nc3cccc(C(F)(F)F)c3)c3ccccc3c2=O)c1 -9.38%
CC(C)Oc1ccc(CNC(=O)c2ccc(CS(=O)c3cccc(Cl)c3)o2)cc1 (stereo not given) 2.3%
COc1ccccc1N1CCN(C(=O)Cn2ncc3ccsc3c2=O)CC1 -9.71%
CN(C)C1(CNC(=O)COc2ccc([N+](=O)[O-])cc2)CCCCC1 -12.9%
CCN(CC)S(=O)(=O)c1ccc2c(c1)N(CC(=O)N1CCN(c3cccc(Cl)c3)CC1)C(=O)CO2 -4.56%
CCC1CN(C(=O)N2CCC(C(=O)NCCc3cc(OC)ccc3OC)CC2)c2ccccc2O1 (stereo not given) -10.9%
Cc1cc(Cl)ccc1NC(=O)Cn1nc(C)c2c(C)n(-c3ccccc3)nc2c1=O -22.8%
Cc1ccc(Cl)cc1Nc1nn2c(=O)c3ccc(C(=O)Nc4ccc(F)cc4)cc3nc2s1 -2.6%
CC1CCN(C(=O)Cn2c(=O)n(CCCCCC(=O)NCc3ccccc3Cl)c(=O)c3sccc32)CC1 -8.57%
CC(=O)Nc1cc(-c2nc3cc(Cl)ccc3o2)ccc1C -0.627%
CCOC(=O)c1ccccc1NC(=O)N1CCN(Cc2cc(=O)n3nc(-c4ccccc4)sc3n2)CC1 -18.3%
CC1=C(C(=O)Nc2ccccc2)C(c2ccccc2C)n2nc(SCC(=O)c3ccc(C)cc3)nc2N1 (stereo not given) 4.81%
COCCCNc1nc2c(S(=O)(=O)c3ccccc3)nnn2c2ccc(Cl)cc12 -19.4%
O=C(NCc1cccs1)c1nn(-c2ccccc2Cl)nc1CO -9.57%
Cc1[nH]n(-c2ccccc2)c(=O)c1C(c1cc(Cl)ccc1O)c1c(C)[nH]n(-c2ccccc2)c1=O 7.05%
CCN(c1cccc(C)c1)S(=O)(=O)c1ccc(-n2cccn2)cc1 -6.49%
